# In the supplement of paper PMC9446081:
# Out of some 39,000 compounds screened, about 220 (0.56%) showed activity. The list shows a part of the results.
# Test system: Escherichia coli K-12 BW25113
# Experiment: relative growth (OD600 normalised to plate interquartile mean) (fraction); higher = less growth inhibition, active = 0.2 or less
# Details: 50 µM; LB; incubation time: overnight (16-24 h)
# 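Further: static incubation at 37 °C against the wild-type strain, values averaged over two biological replicates.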
row,Compound,relative growth
1,NCCn1nc([C@H]2CCN(C(=O)c3csc4c3CCCC4)C2)c2nccnc21,inactive: 1.02
2,Cc1ccc(S(=O)(=O)N(C)C[C@H]2OCCCC[C@H](C)Oc3ccc(NC(=O)CCC(F)(F)F)cc3C(=O)N([C@@H](C)CO)C[C@@H]2C)cc1,inactive: 0.99
3,Cc1ccc(S(=O)(=O)N(C)C[C@H]2OCCCC[C@@H](C)Oc3ccc(NC(=O)c4ccccc4)cc3C(=O)N([C@@H](C)CO)C[C@@H]2C)cc1,inactive: 1.05
4,C[C@H](CO)N1C[C@H](C)[C@H](CN(C)Cc2ccc(C(F)(F)F)cc2)OCc2ccccc2-c2c(n(C)c3ccccc23)C1=O,inactive: 1.04
5,Cc1ccc(S(=O)(=O)Nc2ccc3c(c2)C(=O)N([C@@H](C)CO)C[C@H](C)[C@@H](CN(C)S(=O)(=O)c2ccccc2)O3)cc1,inactive: 1
6,C[C@@H]1CN([C@@H](C)CO)C(=O)c2cc(NC(=O)Cc3ccccc3)ccc2O[C@@H](C)CCCCO[C@H]1CN(C)Cc1ccc(C(F)(F)F)cc1,inactive: 1.02
7,C[C@H]1[C@H]2[C@H](Cc3ccccc3)NC(=O)[C@]23C(=O)N[C@H](Cc2ccccc2)C(=O)N2CCC[C@H]2C(=O)NC/C=C\C/C=C/[C@@H]3[C@@H]2O[C@]12C,inactive: 1.01
8,Cn1cnc(CCNC(=O)C[C@H]2CC[C@@H]3[C@H](COC[C@H](O)CN3C(=O)Nc3ccc(Cl)cc3)O2)c1,inactive: 0.957
9,CC(C)NC(=O)Nc1ccc2c(c1)C(=O)N([C@H](C)CO)C[C@H](C)[C@H](CN(C)S(=O)(=O)c1ccccc1)O2,inactive: 0.975
10,COc1ccc2c3c([nH]c2c1)[C@H](CO)N(C[C@]13CCN(CC1)S(=O)(=O)C)C(=O)Nc1ccc(cc1)F,inactive: 1.01
11,C[C@H]1CN([C@@H](C)CO)C(=O)c2cccc(NC(=O)c3ccncc3)c2O[C@@H]1CN(C)Cc1ccncc1,inactive: 0.998
12,CO[C@@H]1CN(C)C(=O)c2cc(NC(=O)c3nc4ccccc4s3)ccc2OC[C@@H](C)N(Cc2ccccc2)C[C@H]1C,inactive: 1.06
13,Cc1ccc(S(=O)(=O)N(C)C[C@@H]2Oc3ccc(NC(=O)CCCN(C)C)cc3CC(=O)N([C@H](C)CO)C[C@@H]2C)cc1,inactive: 0.994
14,C[C@@H]1CN([C@@H](C)CO)C(=O)Cc2cc(NS(C)(=O)=O)ccc2O[C@@H]1CN(C)S(=O)(=O)c1ccc(Cl)cc1,inactive: 0.984
15,C[C@@H]1CCCCO[C@H](CN(C)Cc2ccc(C(F)(F)F)cc2)[C@H](C)CN([C@H](C)CO)C(=O)c2cc(NS(=O)(=O)c3cn(C)cn3)ccc2O1,inactive: 0.979
16,C[C@@H]1CN([C@@H](C)CO)C(=O)c2cc(NS(=O)(=O)c3ccc(Cl)cc3)ccc2O[C@@H](C)CCCCO[C@H]1CN(C)S(=O)(=O)c1cccs1,inactive: 1.04
17,C[C@H]1CN([C@@H](C)CO)C(=O)Cc2cc(NC(=O)NC3CCCCC3)ccc2O[C@@H]1CN(C)Cc1ccc(C(=O)Nc2ccccc2N)cc1,inactive: 0.99
18,Nc1cccc2c1C(=O)N([C@H]1CCC(=O)NC1=O)C2=O,inactive: 1.02
19,O=C(C[C@H]1CC[C@H]2[C@@H](COC[C@@H](O)CN2C(=O)c2ccccn2)O1)NC1CCC1,inactive: 0.974
20,Cc1ccc(S(=O)(=O)Nc2ccc3c(c2)C(=O)N([C@@H](C)CO)C[C@H](C)[C@@H](CN(C)Cc2ccc4c(c2)OCO4)OCCCC[C@H](C)O3)cc1,inactive: 0.986

row,Compound,relative growth
1,C[C@@H]1CN([C@H](C)CO)C(=O)c2cc(NC(=O)c3ccccc3)ccc2O[C@@H](C)CCCCO[C@@H]1CN(C)Cc1ccc(Cl)c(Cl)c1,inactive: 1.04
2,C[C@H](CO)N1C[C@H](C)[C@H](CN(C)Cc2ccc(Oc3ccccc3)cc2)Oc2ccc(NS(=O)(=O)c3ccc(F)cc3)cc2C1=O,inactive: 0.977
3,C[C@H]1CN([C@@H](C)CO)S(=O)(=O)c2ccc(Br)cc2O[C@@H]1CN(C)S(=O)(=O)c1ccc(F)cc1,inactive: 0.998
4,CC(C)NC(=O)Nc1cccc2c1O[C@H](CN(C)S(=O)(=O)c1ccccc1)[C@@H](C)CN([C@@H](C)CO)C2=O,inactive: 1.01
5,COc1nc(C#N)nc(N2CCCCC2)n1,inactive: 0.975
6,CCCC1OC2CC3C4CCC5=CC(=O)C=CC5(C)C4C(O)CC3(C)C2(C(=O)CO)O1 (stereo not drawn),inactive: 1.05
7,O=C(CN1CCOCC1)N[C@H]1CC[C@H](CCNC(=O)C2CCC2)O[C@H]1CO,inactive: 0.996
8,C=C(/C=C/CNS(=O)(=O)c1ccc(C)cc1)[C@H](O)[C@H]1CCCN1S(=O)(=O)c1ccccc1[N+](=O)[O-],inactive: 0.986
9,C[C@H]1CN([C@@H](C)CO)C(=O)Cc2cc(NC(=O)Nc3cccc4ccccc34)ccc2O[C@@H]1CN(C)Cc1ccccc1,inactive: 1.03
10,C[C@@H]1CN([C@@H](C)CO)C(=O)c2cc(NC(=O)Nc3ccc(F)cc3)ccc2O[C@@H](C)CCCCO[C@H]1CN(C)Cc1ccc(C(=O)O)cc1,inactive: 1.02
11,O=C1N[C@@H](Cc2c[nH]c3ccccc23)COC(=O)[C@H](Cc2ccc(F)cc2)CCC=CC[C@H]1CC(=O)N(CCO)Cc1ccccc1,inactive: 1.01
12,CN1C(=O)c2cc(NC(=O)c3cnccn3)ccc2OC[C@H]2O[C@@H](CC(=O)NCC3CCCCC3)CC[C@@H]21,inactive: 0.987
13,C[C@@H]1CCCCO[C@H](CN(C)C(=O)Nc2cccc3ccccc23)[C@H](C)CN([C@@H](C)CO)C(=O)c2cc(NC(=O)NC3CCCCC3)ccc2O1,inactive: 1.03
14,O=C(C[C@H]1CC[C@H]2[C@@H](COC[C@@H](O)CN2S(=O)(=O)c2ccccc2)O1)NCc1ccc2c(c1)OCO2,inactive: 0.998
15,CC(=O)N1CCCN(S(=O)(=O)c2cn(C)c(=O)n(C)c2=O)CC1,inactive: 1.01
16,C[C@@H]1CN([C@@H](C)CO)C(=O)Cc2cc(NS(=O)(=O)c3ccc(F)cc3)ccc2O[C@@H]1CN(C)S(=O)(=O)c1cccs1,inactive: 0.987
17,C[C@H](CO)N1C[C@H](C)[C@H](CN(C)C(=O)Nc2ccc(C(F)(F)F)cc2)Oc2ccc(NC(=O)NC3CCCCC3)cc2C1=O,inactive: 1
18,C[C@H]1CN([C@@H](C)CO)C(=O)c2cccc(NS(=O)(=O)c3ccc(Cl)cc3)c2O[C@@H]1CN(C)Cc1ccc(-c2ccccc2)cc1,inactive: 0.998
19,C[C@H]1CN([C@@H](C)CO)S(=O)(=O)c2ccc(Br)cc2O[C@H]1CN(C)C(=O)Cc1ccncc1,inactive: 1.01
20,COc1ccc(NC(=O)Nc2ccc3c(c2)C(=O)N([C@@H](C)CO)C[C@@H](C)[C@@H](CN(C)C(=O)Cc2ccccc2)OCCCC[C@@H](C)O3)cc1,inactive: 0.984

row,Compound,relative growth
1,Cc1noc(C)c1S(=O)(=O)Nc1ccc2c(c1)C(=O)N([C@@H](C)CO)C[C@@H](C)[C@@H](CN(C)Cc1ccc(Oc3ccccc3)cc1)O2,inactive: 0.987
2,CC(C)CS(=O)(=O)C1CNC1,inactive: 1.01
3,Cn1c(=O)c2c(nc(Cl)n2CCN2C(=O)CNC2=O)n(C)c1=O,inactive: 0.863
4,C[C@H]1CN([C@@H](C)CO)C(=O)c2cc(NS(=O)(=O)c3cn(C)cn3)ccc2O[C@@H]1CN(C)S(C)(=O)=O,inactive: 0.971
5,C=CCNC(=O)[C@@H]1[C@H]2C(=O)O[C@H](c3ccccc3)[C@H](c3ccccc3)N2[C@H](c2ccc(O)cc2)[C@@]12C(=O)N(C(=O)OCCOC)c1ccc(C#Cc3ccc(OC)cc3)cc12,inactive: 1.06
6,CC(=O)N[C@H]1[C@H]([C@H](O)[C@H](O)CO)O[C@](O)(C(=O)O)C[C@@H]1O,inactive: 1
7,CC#CCn1c(N2CCC[C@@H](N)C2)nc2c1c(=O)n(Cc1nc(C)c3ccccc3n1)c(=O)n2C,inactive: 1.01
8,COCC(=O)Nc1ccc2c(c1)OC[C@H](C)N(C(=O)Cc1cccnc1)C[C@@H](C)[C@H](OC)CN(C)C2=O,inactive: 0.932
9,O=S(=O)(NCC[C@H]1CC[C@@H](NS(=O)(=O)c2cccc(Cl)c2)[C@H](CO)O1)c1cccc(F)c1,inactive: 1.01
10,C[C@@H]1CN([C@@H](C)CO)C(=O)c2cc(NC(=O)Cc3ccccc3)ccc2O[C@H]1CN(C)S(=O)(=O)c1cccs1,inactive: 1
11,C[C@H]1CN([C@@H](C)CO)C(=O)c2cccc(NC(=O)CCCCCC(=O)Nc3ccccc3N)c2O[C@H]1CN(C)Cc1ccc(C(F)(F)F)cc1,inactive: 1.03
12,CO[C@@H]1CN(C)C(=O)c2ccc(NS(=O)(=O)c3ccccc3C)cc2OC[C@@H](C)N(S(C)(=O)=O)C[C@H]1C,inactive: 0.995
13,COc1ccc(NC(=O)Nc2ccc3c(c2)C(=O)N([C@H](C)CO)C[C@H](C)[C@@H](CN(C)Cc2ccncc2)OCCCC[C@H](C)O3)cc1,inactive: 0.981
14,Cc1ccc(S(=O)(=O)N(C)C[C@H]2OCCCC[C@@H](C)Oc3ccc(NS(=O)(=O)c4ccc(Cl)cc4)cc3C(=O)N([C@@H](C)CO)C[C@@H]2C)cc1,inactive: 0.999
15,C[C@H](CO)N1C[C@H](C)[C@@H](CN(C)Cc2ccc(C(=O)O)cc2)Oc2ccc(NS(C)(=O)=O)cc2CC1=O,inactive: 1.02
16,C[C@H](CO)N1C[C@H](C)[C@@H](CN(C)CC2CC2)Oc2ccc(NS(=O)(=O)c3ccccc3)cc2C1=O,inactive: 0.984
17,CCN1[C@@H]2c3ccc(-c4cccnc4)c(=O)n3C[C@@H]2[C@@H](CO)[C@@H]1C(=O)NCCc1cn(C)cn1,inactive: 1
18,CN(C)C(=O)c1ccc(-c2cccc(-c3nc(C(=O)NCc4ccccc4)cc4c3[C@@H](CCO)N([S@@](=O)C(C)(C)C)C4)c2)cc1,inactive: 1.05
